Among all 340,000 compounds or so, about 6,900 (2%) were called active. Rule as the data show it: active = inhibition above about 30%; inactive = below that, where a call was filed. The list shows a part of the results, in another mix than the full data. The source gives no active or inactive call for entries shown without one.

Chain of UniProt P14416 (P14416 whole entry, looked up): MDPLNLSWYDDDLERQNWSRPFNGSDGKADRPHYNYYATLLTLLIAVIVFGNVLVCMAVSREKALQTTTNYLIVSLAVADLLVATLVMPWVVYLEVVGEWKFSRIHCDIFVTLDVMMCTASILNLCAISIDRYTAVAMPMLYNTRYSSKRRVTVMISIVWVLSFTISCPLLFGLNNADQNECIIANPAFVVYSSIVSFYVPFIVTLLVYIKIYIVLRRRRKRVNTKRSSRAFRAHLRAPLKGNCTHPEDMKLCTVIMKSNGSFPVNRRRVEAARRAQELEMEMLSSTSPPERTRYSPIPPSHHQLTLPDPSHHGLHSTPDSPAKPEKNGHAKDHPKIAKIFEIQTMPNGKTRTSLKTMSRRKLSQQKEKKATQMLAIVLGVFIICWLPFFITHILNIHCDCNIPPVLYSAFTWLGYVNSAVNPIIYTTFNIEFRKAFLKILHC

For the assay, the target named is D(2) dopamine receptor (Homo sapiens) (UniProt P14416). Kind of assay: HTS Assay for Allosteric Antagonists of the Human D2 Dopamine Receptor: Primary Screen for Antagonists. Also: 0% is about no effect. Particulars: HEK293 TREx D2 cells, calcium flux, dopamine EC80; at 10 µM; stronger effect = higher value. The gist of the method:
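Tetracycline-induced HEK293 TREx cells expressing D2 receptor forced-coupled to calcium signalling, loaded with no-wash calcium dye. Compounds added and calcium flux read 180 s, then dopamine added at EC80 and read a further 180 s.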
(A change in cytosolic calcium serves as a functional read-out for many receptors and channels.)
Consider `Cc1ccc(NC(=O)CSc2nnc3scc(-c4ccc(Cl)cc4)n23)cc1`, for which the inhibition – broadly, the drop in the measured response relative to a control, in per cent – amounted to 26.9%. On to `COc1cccc(CNC(=O)C2CCC(CNS(=O)(=O)c3ccc4c(c3)CCCC(=O)N4)CC2)c1` (stereo not given), for which the inhibition is -4.8%. The value for `CCN(CC)C(=O)Cn1c(=O)cc(C)c2c(C)nn(-c3cccc(Cl)c3C)c21` was 10.6%. For the molecule `CCOC(=O)C1=C(CN2CCN(c3ccc(OC)cc3)CC2)NC(=O)NC1c1ccc(OC)cc1` (stereo not given), the inhibition was -1.1%. Turning to `COc1cccc(OCC(O)CN2CCN(c3ncccn3)CC2)c1` (stereo not given), the inhibition was active: 69.1%. On to `COc1ccc(NC(=O)Cn2cc(S(=O)(=O)N3CCN(c4ccccc4F)CC3)c3ccccc3c2=O)cc1Cl`, for which the inhibition was 10.6%. The value for `CCn1c(SCC(=O)c2[nH]c(C)c(C(C)=O)c2C)nnc1-c1cccs1` was active: 98.8%; that for `CCN(CC)CCCNc1oc(/C=C/c2ccc(OC)c(OC)c2)nc1C#N` was 10.8%.

Take `CCOc1ccc(-c2cc(C(=O)N3CCN(c4cc(Cl)ccc4C)CC3)c3ccccc3n2)cc1`: the inhibition was -25%.

Turning to `CNc1c(NC(=O)c2ccc(OC)c(OC)c2)c(=O)oc2ccccc12`, the inhibition was 0.701%. `Cc1cc(C)c(Nc2nc3ccccc3n3c(C)nnc23)c(C)c1`: the inhibition is -11.4%.

For the molecule `Brc1cccc(OCCN2CCCCC2)c1`, the inhibition is active: 47.5%. With `Cc1ccc(NC(=O)C(=O)NCC(c2cccnc2)N2CCN(Cc3ccccc3)CC2)cc1C` (stereo not given), the inhibition is -1.21%. Take `COc1ccccc1OCCn1c(NC(=O)c2ccccc2Cl)nc2ccccc21`: the inhibition is -18.8%.

With `Cc1cc(Nc2ccccc2F)n2nc(-c3ccccc3)nc2n1`, the inhibition was -13.1%.

For the molecule `CCOC(=O)C1CCN(c2cc3c(cc2NC(=O)c2ccc(Cl)cc2)n(C)c(=O)n3C)CC1`, the inhibition amounted to 8.11%.

On to `CCOc1ccc(Nc2oc(-c3ccc(COc4ccc(OC)cc4)o3)nc2C#N)cc1`, for which the inhibition was 0.212%. As for `COC(=O)c1ccc(Cl)cc1NC(=O)N1CC2CCCN2c2ccccc21` (stereo not given), the inhibition is -6.52%.

Take `COc1ccc(S(=O)(=O)NCc2ccc3c(c2)CCN3C(=O)c2ccccc2)cc1OC`: the inhibition came to 5.16%.

For `Cn1c(=O)cc(SCC(=O)NCCCN2CCN(c3ccc(F)cc3)CC2)c2ccccc21`, the inhibition is active: 90.6%. For `COc1ccc(NC(=O)CN2C(=O)CCn3nc(-c4cccn4C)cc32)cc1`, the inhibition was -3.65%. Regarding `COc1cccc(CNC(=O)c2cnc3c(-c4ccc(F)cc4)c(C)nn3c2C)c1`, the inhibition was 10.3%. As for `CC(=O)Nc1ccc(NC(=O)c2nc(S(=O)(=O)Cc3ccc(F)cc3)ncc2Cl)cc1`, the inhibition is -3.87%. For `CCc1ccc(C2C(C(=O)Nc3ccccc3OC)=C(C)Nc3c(C(=O)Nc4ccc(C)cc4)cnn32)cc1` (stereo not given), the inhibition is -4.83%.

`CCN(C(=O)c1cn(-c2cccc(OC)c2)c(=O)c2ccccc12)c1ccccc1C`: the inhibition is 10.6%. With `Cc1noc(C(=O)Nc2ccc3c(c2)OCO3)c1Cl`, the inhibition was active: 54.4%. The value for `OC(COCc1ccccc1)CN1CCN(c2ccccc2F)CC1` (stereo not given) was active: 111%; that for `COc1ccc(C(=O)Nc2ccccc2-c2nc3ccccc3s2)cc1OC` was -0.121%; that for `Cc1ccc(C)c(NC(=O)CSc2nccn2-c2cccc(C)c2C)c1` was -18.4%.

As for `Cc1nn(-c2nc(-c3ccccc3)cc(C(F)(F)F)n2)c(C)c1Cl`, the inhibition came out at 0.486%. On to `CCc1nn(C(CC)C(=O)NCc2ccc(OC)c(OC)c2)c(=O)c2cc3oc(C)cc3n12` (stereo not given), for which the inhibition was 16.2%.

For `COc1ccccc1N1CCN(c2ncnc3c2c(-c2ccccc2)cn3-c2cccc(Cl)c2)CC1`, the inhibition turned out to be 9.82%. The figure for `Cc1ccc(OCCSc2nc(-c3ccccc3C)nc3cc(=O)[nH]n23)cc1Cl` is -0.632%; for `COc1cccc(OC)c1C(=O)NCCc1sc(-c2cccc(F)c2)nc1C` it is -11.7%; for `COc1ccc(S(=O)(=O)N2CCC(Oc3ccc(-n4cnnn4)cc3)CC2)cc1` it is -5.55%. On to `CCCCNC(=O)c1cccc(NC(=O)c2nsc3ccccc23)c1`, for which the inhibition stood at 3.79%.

With `Cc1cc(NS(=O)(=O)c2ccc(NC(=O)c3ccc(Cl)cc3[N+](=O)[O-])cc2)no1`, the inhibition is active: 40.7%. The figure for `CCOc1ccc2c(c1)c(=O)c(C(=O)c1ccc3c(c1)OCO3)cn2Cc1ccc(F)cc1` is -10%; for `O=C(O)c1ccc(CSc2nc3ccccc3c(=O)n2-c2ccccc2)cc1` it is active: 48.3%; for `COc1cc(/C=C(\C#N)c2nc3ccc(C)cc3[nH]2)ccc1OCc1ccc(C)cc1` it is 6.6%. `CCc1ccc(OCCSc2nc3ccccc3n2CC(=O)N2CCCCC2)cc1`: the inhibition amounted to 12.8%. Take `O=C(c1ccc(F)cc1)N1CCc2c([nH]c3ccccc23)C1c1ccc(Cl)cc1` (stereo not given): the inhibition was found to be 8.94%.

For `CCOc1ccc(NCc2cccn2-c2nnc(N3CCC(C(=O)NCc4ccccc4Cl)CC3)s2)cc1`, the inhibition is -10.3%.

`CC(C)(C)OC(=O)N1CCC(c2c(C(=O)NCc3cccs3)cnn2-c2cccc(F)c2)CC1`: the inhibition amounted to 5.18%. Turning to `COc1ccc(Cl)cc1NC(=O)N1CCN(S(=O)(=O)c2ccc3c(ccn3C)c2)CC1`, the inhibition was determined as 6.71%. For `COc1ccc(OC)c(NC(=O)c2oc(=O)c3ccccc3c2-c2ccccc2)c1`, the inhibition was 11.3%. Regarding `COc1ccc(CC(=O)N2CCc3cc(OC)c(OC)cc3C2COc2ccc(F)cc2)cc1` (stereo not given), the inhibition amounted to 22%. `COc1cc2c(cc1OC)C(c1cccc(Cl)c1)CC(=O)N2` (stereo not given): the inhibition is -15.8%. The figure for `Cn1nc(-c2ccccc2F)c2cc(C(=O)NCc3ccccc3Cl)sc21` is 6.25%. `COc1ccc(N2CCN(S(=O)(=O)c3ccc(F)c(C(=O)Nc4ccccc4Cl)c3)CC2)cc1`: the inhibition amounted to 6.91%.

On to `CCCSCCCNC(=O)c1ccc(C)c(NC(=O)c2nsc3ccccc23)c1`, for which the inhibition was -15.6%. `COc1cccc(Cn2nc(SC)c(S(=O)(=O)c3ccccc3)c2N(C(C)=O)C(C)=O)c1`: the inhibition turned out to be 8.58%. Turning to `CCS(=O)(=O)N1CCCc2cc(C(=O)Nc3cccc(C(C)=O)c3)ccc21`, the inhibition is 10.5%. On to `CCC(=O)N1CCc2cc(Br)cc(S(=O)(=O)CCC(=O)Nc3cccc(Cl)c3)c21`, for which the inhibition is -7.42%. As for `CCCn1c2ccc(F)cc2c2nnc(SCCN3CCCCC3)nc21`, the inhibition stood at 26.7%. As to `CCOc1ccc(Nc2ncnc3c2c(-c2ccccc2)cn3-c2cccc(C)c2)cc1`, the inhibition is 1.14%.

As for `Clc1ccc(-c2nnn3c2nc(NC2CCCCC2)c2ccccc23)cc1`, the inhibition came out at 2.53%. The value for `CCOc1ccc(C(=O)N(Cc2ccc(C(C)C)cc2)Cc2ccco2)cc1` was -5.46%; that for `COc1ccc(-c2noc(CCC(=O)N(C)c3cc(Cl)ccc3OC)n2)cc1` was -7.96%.

As for `CC(C)CCOc1ccc(C(=O)NCC2OCCc3ccccc32)cc1` (stereo not given), the inhibition was 0.722%. In the case of `COc1ccc(NS(=O)(=O)c2ccc(N3CCCCS3(=O)=O)cc2)cc1Cl`, the inhibition was -0.0227%.

For `CN(CCC(=O)Nc1cc(S(=O)(=O)N(C)C)ccc1Cl)CC(=O)Nc1ccc(F)cc1`, the inhibition is active: 50.6%. With `COc1cccc(-n2c(=O)c3cc(OC)c(OC)cc3n(CC(=O)Nc3ccc(F)cc3)c2=O)c1`, the inhibition stood at 16.6%. As for `COc1ccc(-n2c(SCC(=O)NCc3ccc(Cl)cc3)nc3ccsc3c2=O)cc1`, the inhibition turned out to be 3.65%. As for `CCOC(=O)C1CCCCN1C(=O)CCc1c(C)nc2cc(-c3ccccc3)nn2c1C` (stereo not given), the inhibition was active: 32.8%.

For `Cc1ccc(NC(=O)CCCc2nc(-c3ccco3)no2)cc1Cl`, the inhibition turned out to be 5.59%. Consider `COc1cccc(NC(=O)C(Cc2ccccc2)N2Cc3ccccc3C2=O)c1` (stereo not given), for which the inhibition came out at 9.77%.

With `COc1ccc(-n2nnnc2C2CCN(S(=O)(=O)c3cccc(C(F)(F)F)c3)CC2)cc1`, the inhibition was 7.95%.

As for `CC(=O)Nc1ccc(/C=C/c2noc(-c3ccccc3O)n2)cc1`, the inhibition was determined as 3.31%.

On to `CCOC(=O)CSc1nc(-c2ccc(OCC)cc2)cc(C(F)(F)F)c1C#N`, for which the inhibition was found to be 20.4%. For the molecule `Cc1cc(C)c2ccc(C)[n+]([O-])c2c1O`, the inhibition was active: 37.4%. For the molecule `CC(=O)c1ccc(N2CCN(S(=O)(=O)c3cc4[nH]c(=O)c(=O)[nH]c4cc3C)CC2)cc1`, the inhibition was found to be 2.25%.

With `COc1ccccc1CNC(=O)C(=O)NCC(c1cccs1)S(=O)(=O)c1ccccc1` (stereo not given), the inhibition is -16.4%. `CCc1nnc(NC(=O)c2cc(=O)c3cc(C)ccc3o2)s1`: the inhibition came to 2.56%. For `Cc1ccc(C)c(N2CCN(C(=O)Cn3cnc4onc(-c5ccc(F)cc5)c4c3=O)CC2)c1`, the inhibition was -0.44%. On to `CCOc1ccc2ncc3c(-c4ccc(C)cc4)nn(-c4cccc(F)c4)c3c2c1`, for which the inhibition turned out to be 26.6%. For `COc1ccc(CCNC(=O)CSc2nc3[nH]c(=O)cc(O)c3s2)cc1`, the inhibition was active: 43.9%.

With `COc1ccc(-c2nc3c(c(SCC(=O)N4CCCCC4)n2)Cc2cc(C)ccc2O3)cc1`, the inhibition came out at 5.87%.

For the molecule `O=S(=O)(c1cccc(Cl)c1)c1nnn2c1nc(NCc1ccc3c(c1)OCO3)c1sccc12`, the inhibition was 19.2%. The value for `COc1ccc(C(=O)c2oc3ccccc3c2NC(=O)c2cc(=O)c3ccc(C)cc3o2)cc1Cl` was -16.3%; that for `Cc1cccc(C(=O)Nc2nnc(S(=O)(=O)N(C)Cc3ccccc3)s2)c1` was 16.1%. As for `Cc1ccc(S(=O)(=O)CC(=O)Nc2nc3c(C)cc(C)cc3s2)cc1`, the inhibition was found to be 16.2%. For the molecule `CCOc1ccc(-c2cccc(NS(=O)(=O)c3ccc(F)cc3F)c2)nn1`, the inhibition is -9.89%.

As to `COc1ccc(-c2noc(CNC(=O)c3ccccc3Br)n2)cc1`, the inhibition is 1.57%.

With `CCCOc1ccc(C2c3c(-c4ccccc4O)n[nH]c3C(=O)N2CCc2ccccc2)cc1OCC` (stereo not given), the inhibition is -0.629%.

For the molecule `N#Cc1c(SCc2ccccc2)sc(C(=O)c2ccccc2)c1N`, the inhibition is active: 65%. On to `Cc1ccc(NC(=O)c2cc(S(=O)(=O)N3CCC4(CC3)OCCO4)ccc2F)cc1Cl`, for which the inhibition is 2.63%. The figure for `CCOc1cccc(C(=O)Nc2ccc(-c3nc4ncccc4o3)cc2C)c1` is 11.3%; for `CCOC(=O)c1ccccc1NC(=O)c1sc2nc3n(c(=O)c2c1C)CCCCC3` it is 17.3%; for `CN(C)S(=O)(=O)N(CC(=O)NCCSCc1c(F)cccc1Cl)c1ccccc1` it is 16.6%. The figure for `COC(=O)c1c(NC(C)=O)c2c3c(sc2n1Cc1cc(C)ccc1C)CCCC3` is -5.82%; for `O=C(NCCN1CCN(c2ccccc2)CC1)C1CCN(S(=O)(=O)N2CCOCC2)CC1` it is active: 60.6%. `O=c1[nH]c(SCc2c(F)cccc2Cl)nc2c1CCC2`: the inhibition was -15.5%. As for `Cc1ccc(S(=O)(=O)N2CCC(N3CCN(Cc4ccccc4)C(=O)C3=O)CC2)cc1C`, the inhibition was 6.96%.

As for `CCN(CC)S(=O)(=O)c1cccc(C(=O)Nc2ccccc2C(=O)Nc2ccc(Cl)cc2)c1`, the inhibition came to 0.144%.
